Whole data set: some 81,000 sequences, median “one-hybrid fitness for binding NBS DNA” near -0.1, cut for the highest 2% near 0.36. Some of the results follow.
B1: Caulobacter ParB omega fusion; a variant is named by its letters at X, in order, B8GW30 (parent)
chain: MESVVVGEPGMSEGRRGLGRGLSALLGEVDAAPAQAPGEQLGGSREAPIEILQRNPDQPRRTFREEDLEDLSNSIREKGVLQPILVRPSPDTAGEYQIVAGERAWRAAQRAGLKTVPIMVRELDDLAVLEIGIIENVQRADLNVLEEALSYKVLMEKFERTQENIAQTIGKSXSHVANXMRLLXLPDEVQSYLVSGELTAXHARAIAAAADPVALAKQIIEGGLSVRETEALARKAPNLSAGKSKGGRPPRVKDTDTQALESDLSSVLGLDVSIDHRGSTGTLTITYATLEQLDDLCNRLTRGI

Variants of: B1
Experiment: one-hybrid fitness for binding NBS DNA (the Noc-binding site; scaled: cognate 1, non-cognate 0); higher = stronger binding
Conditions: with NBS DNA site
How it was run: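 Pre- and post-selection plasmids were Illumina-sequenced, three replicate libraries were pooled, and any variant with under 10 reads was removed. The libraries were Caulobacter ParB with four specificity codons randomised, selected in E. coli USO through a HIS3 reporter whose site is 19 bp from the promoter. Cells grew 48 hours at 37°C on M9 without histidine, with 0.1 mM IPTG and 5 mM 3-AT. Fitness is the log change in variant-to-wild-type read ratio, rescaled against cognate and non-cognate.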

one-hybrid fitness for binding NBS DNA, ≤ 0.2:
LPPA
AIAL
SPAH
DHYR
ANGC
EAMG
GDHL
FEHR
EHNE
LTGW
MHDR
TYRA
AYLS
FRQY
SWFS
QVSC
HQSQ
QLWD
VSDY
YVVN
RIVD
ILHR
FACT
MQAE
QQVM
IFPN
CRGF
KLEI
CMPR
AENV
LSIW
LTGC
DIEF
HTPD
GNET
WTYG
DQNE
VLWT
KYSR
PDPY
HVAG
MEIR
VFYS
TRGF
RAPT
DTCG
WLNS
PRNM
IATS
LVYS
CMPS
EQST
GYQG
DAAP
CTNC
LLTN
HGRG
NNTT
SISI
RGTL
MRCR
DARF
PIMD
CKSM
LRMC
KSFS
IYQC
IMHT
DVAT
HHTI
GELT
WTHT
GYDP
QTWF
WPSN
QHFG
THTC
AFSS
RQQN
RKHP
YSTT
EFTV
QWRT
PTNG
